Data on 42 compounds can be found in ChEMBL document CHEMBL4888484, “Replenishing the malaria drug discovery pipeline: Screening and hit evaluation of the MMV Hit Generation Library 1 (HGL1) against asexual blood stage Plasmodium falciparum ,using a nano luciferase reporter read-out” (2022).

About 540 (0.36%) of roughly 150,000 compounds showed an effect of 50% or more. The list shows a part of the results.

A word on the % Inhibition: it is the relative decrease from the control value, in per cent.

The experiment deals with Plasmodium falciparum. Kind of experiment: Primary screen in NF54 nanoGlo assay, in single point, at 2uM, 72h; a lower Z score goes with more inhibition. Format: functional, Erythrocyte. As to conditions: timepoint 72 hour.
As to `Cc1cc(CN(C)CC2CC(NC(=O)OC(C)(C)C)C2)no1` (centres undefined), the “% Inhibition” value is recorded as -8% and the Z score is on record as 1.27.

Regarding `CC(=O)C1C(c2cn(-c3ccccc3)nc2-c2ccccc2)NC(=O)NC1(O)C(F)(F)F` (centres undefined), the “% Inhibition” value was -25% and the Z score turned out to be 4.33.

As to `CN=C(NCc1nc(C)c(C)s1)NC[C@H]1COc2ccccc2O1`, the “% Inhibition” value was determined as 5% and the Z score is on record as -0.99.

`CCOc1cc(N2CCOCC2)c(OCC)cc1NC(=O)C(=O)c1ccc(C)cc1`: the “% Inhibition” value turned out to be 16% and the Z score is -1.89.

On to `C[C@H](Oc1ccc(NC(=O)C2(c3cccnc3)CCCC2)cc1F)C(=O)O`, for which the “% Inhibition” value is listed as -4% and the Z score worked out at 0.44.

As to `CC[C@H](C)N(Cc1ccsc1)C(=O)c1cnn(CC)c1`, the “% Inhibition” value is listed as -15% and the Z score came out at 1.47.

As to `O=C(c1nccn2ccnc12)N(Cc1cccs1)Cc1cccs1`, the “% Inhibition” value was -8% and the Z score was found to be 1.23.

Regarding `CC(C)OC(=O)N[C@H]1CCCCN(S(=O)(=O)C2CC2)C1`, the “% Inhibition” value was -12% and the Z score is on record as 1.62.

In the case of `O=c1scc(-c2cccc(F)c2)n1Cc1nnsc1Cl`, the “% Inhibition” value was -15% and the Z score is listed as 2.92.

As to `C[C@@H](C(=O)Nc1ccccc1C(F)(F)F)S(C)(=O)=O`, the “% Inhibition” value is given as -12% and the Z score amounted to 1.55.

As for `CCCN1C(=O)c2ccccc2N2C(=O)CC[C@@]12C(=O)Nc1nc(C)cs1`, the “% Inhibition” value was found to be 2% and the Z score is recorded as -0.31.

In the case of `COc1ccc(CN2C(=O)O[C@H]3CN(C4CCCC4)C[C@H]32)cc1OC`, the “% Inhibition” value is given as -1% and the Z score amounted to 0.23.

Take `COc1ccc(-c2noc(CCC(=O)N[C@H]3CCS(=O)(=O)C3)n2)cc1OC`: the “% Inhibition” value is given as -3% and the Z score was found to be 0.42.

With `CCc1ccc([C@@H]2COCCN2C(=O)c2nnn(-c3ccc(C)cc3)c2C)o1`, the “% Inhibition” value is given as -6% and the Z score worked out at 0.85.

`Cc1cc(-c2cc(S(=O)(=O)NCCc3ccc(Cl)cc3)c(C)s2)[nH]n1`: the “% Inhibition” value was -5% and the Z score was 0.93.

As to `CC1CN(C(=O)Nc2ccc(N3CC(C)OC(C)C3)cc2)CCO1` (centres undefined), the “% Inhibition” value was -14% and the Z score is on record as 1.28.

On to `O=C1CN(S(=O)(=O)c2ccc(Cl)c(Cl)c2)C[C@H]2c3ccccc3CCN12`, for which the “% Inhibition” value was determined as 0% and the Z score stood at 0.06.

Take `C[C@H]1CC[C@@](C)(C(=O)NCc2nnc[nH]2)C1(C)C`: the “% Inhibition” value worked out at 3% and the Z score is -0.59.

In the case of `O=C(Nc1nonc1NC(=O)C(F)(F)F)C(F)(F)F`, the “% Inhibition” value was found to be 7% and the Z score was -0.86.

Turning to `COc1nccc(CNC(=O)N2CCC3(CCCC3)C2)n1`, the “% Inhibition” value was 33% and the Z score is given as -3.69.

For `COCc1c(C(=O)N[C@H]2CN(S(C)(=O)=O)C[C@@H]2C(C)C)noc1C`, the “% Inhibition” value turned out to be 2% and the Z score is listed as -0.28.

`CCCNC1(Cc2cc(COC)on2)COC1`: the “% Inhibition” value is listed as -10% and the Z score is on record as 1.86.

With `Cc1noc(C)c1CC(=O)N1C[C@@H]2C[C@H](NC(=O)c3ccccc3)[C@H]1C2`, the “% Inhibition” value came out at 29% and the Z score is given as -3.26.

Take `N#CCN(C(=O)Cn1c(C(F)(F)F)ccc(C(N)=O)c1=O)c1ccccc1`: the “% Inhibition” value is -8% and the Z score was 1.58.

For `O=C(NCCOc1cccc(Cl)c1Cl)c1cncc(Br)c1`, the “% Inhibition” value was found to be 1% and the Z score was -0.09.

Take `Cc1ccc(Cl)c(CN[C@H]2CCCN(Cc3cccc(O)c3)C2)c1F`: the “% Inhibition” value is listed as -13% and the Z score turned out to be 2.09.

On to `Cc1ccoc1C(=O)N1CCNC[C@H]1C(=O)Nc1ccc(F)cc1`, for which the “% Inhibition” value is recorded as -17% and the Z score turned out to be 2.62.

Consider `COc1cc(F)c(CN(Cc2cccnc2)C2CCN(C)CC2)cc1OC`, for which the “% Inhibition” value is -5% and the Z score was determined as 0.89.

For `CC(=O)Nc1c(-c2ccc(C)cc2)c(C)nn1-c1ccc(C(=O)Nc2cc(C)ccn2)cc1`, the “% Inhibition” value is on record as 59% and the Z score is -6.89.

On to `C[C@H]1C(=O)N(c2ccc(F)c(Cl)c2)CCN1C(=O)CCc1ccccc1`, for which the “% Inhibition” value is listed as -9% and the Z score was found to be 1.09.

`CCOC(=O)N1CCc2c(sc(NCc3cccnc3)c2C(=O)Nc2ccccc2OCC)C1`: the “% Inhibition” value is 2% and the Z score is listed as -0.39.

For the compound `CCc1ccccc1CNC(=O)C1CN(CC(F)F)C1`, the “% Inhibition” value is reported as -3% and the Z score is listed as 0.69.

As to `CC(C)NS(=O)(=O)[C@H]1CCN(Cc2cccn2C)C1`, the “% Inhibition” value came to 1% and the Z score is recorded as -0.15.

On to `COc1ccc(C)cc1S(=O)(=O)N1CCC[C@H](c2nnc(C)s2)C1`, for which the “% Inhibition” value is on record as -11% and the Z score came to 1.66.

Regarding `CC1(C)C[C@]2(NC(=O)N(CC(=O)Nc3ccc4c(c3)CCC4)C2=O)C(C)(C)O1`, the “% Inhibition” value is reported as -14% and the Z score stood at 2.81.

`CCN(CC)C(=O)C(=O)N1CCOCC1`: the “% Inhibition” value is recorded as 5% and the Z score was -0.63.

`N#Cc1ccc(CN2C[C@@H](CO)[C@H](NC(=O)c3cccnc3)C2)cc1`: the “% Inhibition” value is -8% and the Z score is given as 1.43.

Turning to `COCC1(Cn2cnc(-c3ccccc3)c2-c2cccs2)CC1`, the “% Inhibition” value was -8% and the Z score turned out to be 1.47.

With `CC(C)c1noc(C(C)N2CC3CC=CCC3C2)n1` (centres undefined), the “% Inhibition” value is given as -2% and the Z score is 0.26.

Turning to `COc1ccccc1-c1c(C)nn2c(N3CCc4ccccc4C3)cc(C)nc12`, the “% Inhibition” value is given as -7% and the Z score is 1.12.

As to `CC(=O)Nc1ccc(N2C(=O)c3cc(C)nn3C[C@@]2(C)C(=O)NCc2ccc(C)cc2)cc1`, the “% Inhibition” value was -17% and the Z score is 2.72.

For the compound `CCOc1ccccc1C(=O)Nc1ncn(CC(=O)N2CCCCCC2)n1`, the “% Inhibition” value is listed as 3% and the Z score is reported as -0.46.
